# PubChem BioAssay AID1347165 (National Center for Advancing Translational Sciences (NCATS), 2019)
# Hit rate of the full screen: of about 220,000 compounds, about 5,700 (2.6%) were called active. Inconclusive means that the source gave no clear call. Such entries were picked first, then a sample of the others. The call rests on the fitted dose curve; in most records, active means well fitted inhibition curve with a large enough effect; inconclusive means small, poorly fitted or top-dose-only effect; inactive means no such curve, though single readings can be large or run the other way. A potency beside an inconclusive call is a rough fit, not a confirmed value.
# Target: Lysine-specific demethylase 5B (Homo sapiens) (UniProt Q9UGL1)
# Assay: Primary screen for KDM5B Histone Demethylases FDH-coupled qHTS; further: nearly all actives have a fitted effect of over 70% in size; on activity change, negative = inhibition: 0% is about no effect
# Settings: FDH-coupled NADH fluorescence (FDH is formaldehyde dehydrogenase); activity change, negative = inhibition: at 57.7 µM (top of the series) unless noted
# Method in brief: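 Inhibition is measured as reduced NADH fluorescence generation from FDH coupling to formaldehyde release. Truncated KDM5BΔAP at 200 nM final acts on H3K4me3 peptide (12.5 µM in substrate mix) in pH 7.5 HEPES buffer with Tween-20, 30 min, room temperature.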
# Potency means the concentration at half of the fitted maximal effect; tags describe the fitted curve by direction and shape.
# UniProt Q9UGL1, sequence (Q9UGL1 whole entry, looked up): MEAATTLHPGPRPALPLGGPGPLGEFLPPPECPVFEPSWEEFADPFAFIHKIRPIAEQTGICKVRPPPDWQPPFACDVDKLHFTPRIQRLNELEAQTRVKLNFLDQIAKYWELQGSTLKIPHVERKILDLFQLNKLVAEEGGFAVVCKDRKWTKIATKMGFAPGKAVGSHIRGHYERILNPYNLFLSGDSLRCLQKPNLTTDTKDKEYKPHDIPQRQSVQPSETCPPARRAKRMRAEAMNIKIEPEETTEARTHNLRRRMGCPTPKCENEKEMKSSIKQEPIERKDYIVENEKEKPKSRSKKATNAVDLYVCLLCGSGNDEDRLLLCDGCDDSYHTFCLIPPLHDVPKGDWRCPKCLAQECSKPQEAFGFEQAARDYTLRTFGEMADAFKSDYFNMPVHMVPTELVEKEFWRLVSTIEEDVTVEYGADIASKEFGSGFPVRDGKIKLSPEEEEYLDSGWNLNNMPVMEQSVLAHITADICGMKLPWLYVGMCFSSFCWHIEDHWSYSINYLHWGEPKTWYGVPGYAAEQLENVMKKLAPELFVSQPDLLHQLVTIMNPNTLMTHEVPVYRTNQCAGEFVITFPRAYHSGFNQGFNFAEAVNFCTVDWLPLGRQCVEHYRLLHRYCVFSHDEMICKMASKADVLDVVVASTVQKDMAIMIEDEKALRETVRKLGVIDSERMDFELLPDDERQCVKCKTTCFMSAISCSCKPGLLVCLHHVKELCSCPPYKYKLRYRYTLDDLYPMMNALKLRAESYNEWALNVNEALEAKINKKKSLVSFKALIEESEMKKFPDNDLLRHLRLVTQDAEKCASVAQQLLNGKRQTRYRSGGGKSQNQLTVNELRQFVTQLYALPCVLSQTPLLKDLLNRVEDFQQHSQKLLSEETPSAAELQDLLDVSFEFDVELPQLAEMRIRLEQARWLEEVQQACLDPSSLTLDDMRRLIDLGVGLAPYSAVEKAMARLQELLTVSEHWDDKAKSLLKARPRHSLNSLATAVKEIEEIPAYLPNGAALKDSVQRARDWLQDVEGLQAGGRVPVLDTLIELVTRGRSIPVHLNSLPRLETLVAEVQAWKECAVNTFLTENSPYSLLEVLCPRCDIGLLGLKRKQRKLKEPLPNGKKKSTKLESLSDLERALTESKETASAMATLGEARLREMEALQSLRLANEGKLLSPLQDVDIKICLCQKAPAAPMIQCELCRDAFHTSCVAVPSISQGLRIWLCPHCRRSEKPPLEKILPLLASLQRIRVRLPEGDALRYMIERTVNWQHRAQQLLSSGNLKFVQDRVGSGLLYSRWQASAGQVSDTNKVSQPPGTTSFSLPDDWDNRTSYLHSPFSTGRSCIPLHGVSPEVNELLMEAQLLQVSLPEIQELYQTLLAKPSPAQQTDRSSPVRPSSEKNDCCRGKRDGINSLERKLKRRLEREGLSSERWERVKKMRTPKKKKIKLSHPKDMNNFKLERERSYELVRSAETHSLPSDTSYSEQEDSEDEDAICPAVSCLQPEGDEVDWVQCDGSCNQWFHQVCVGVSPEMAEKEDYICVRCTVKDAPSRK
SMILES,Potency,"activity change, negative = inhibition"
CS(=O)(=O)N1CCN(Cc2nc3ccsc3c(=O)[nH]2)CC1,inactive,–
CC(c1ccc(-c2ccc(N(C)C)nn2)cc1)N(C)C (stereo not drawn),"inconclusive: 28.2 µM [inhibitor, partial curve, poor fit]",–
CCOc1ccc2c(c1)cc(C(=O)NCCOc1ccc(Cl)cc1)n2C,"inconclusive: 22.4 µM [inhibitor, partial curve, poor fit]",–
COc1ccc(C(=O)N2CCN3C(=O)N(C4CCOCC4)C[C@H]3C2)cc1,inactive,–
COC(=O)c1ccc(C(=O)NCC2CCCCC2)cc1,inactive,–
CCn1cc(C(=O)NCc2ccccc2)c(=O)c2cc(S(=O)(=O)N3CCc4ccccc4C3)ccc21,"inconclusive: 25.1 µM [inhibitor, partial curve, poor fit]",–
O=C1CCCCCN1C1CCN(Cc2ccncc2)CC1,"inconclusive: 31.6 µM [inhibitor, single point]",–
CNc1c(NC(=O)c2ccccc2Cl)c(=O)oc2ccccc12,inactive,–
Cn1cc(C(C(=O)O)N2CCN(c3ncccn3)CC2)c2ccc(C(=O)O)cc21 (stereo not drawn),"inconclusive: 22.4 µM [inhibitor, partial curve, poor fit]",–
Cc1oc(-c2cccc(Cl)c2)nc1CN1CCC(C(=O)NCCCN2CCN(c3ccc(F)cc3)CC2)CC1,–,inconclusive: -33.4% [inhibitor]
CCCCNC(=O)Cc1csc2nc(C)c(-c3cc(C)n(-c4ccc(F)cc4)n3)c(=O)n12,active: 28.2 µM,–
Cc1ccccc1Nc1c(-c2ccc(Cl)s2)nc2cccc(C)n12,"inconclusive: 25.1 µM [inhibitor, partial curve, poor fit]",–
O=C(CSc1nnc(-c2ccc(Cl)cc2)n1CC1CCCO1)Nc1ccc2c(c1)OCO2 (stereo not drawn),inactive,–
COc1ccccc1-c1cc(C(=O)O)c2cccc(C)c2n1,"inconclusive: 39.8 µM [inhibitor, single point]",–
O=C(NCC1CCCO1)c1ccc(CSc2nc3cccnc3n2Cc2ccc(F)cc2)cc1 (stereo not drawn),"inconclusive: 25.1 µM [inhibitor, single point]",–
CC(C)NC(=O)CC[C@@H]1CNC(=O)[C@@H]2C[C@H](NCc3cccc(Cl)c3)CN12,"inconclusive: 35.5 µM [inhibitor, partial curve]",–
Cc1cc(C)cc(N(C)C(=O)C2CCN(c3oc(-c4ccco4)nc3C#N)CC2)c1,"inconclusive: 20 µM [inhibitor, partial curve, poor fit]",–
CC(C)CCNC(=O)Cn1c(=O)n(CCC(C)C)c(=O)c2sccc21,"inconclusive: 39.8 µM [inhibitor, single point]",–
